Measured values reported in publication PMC9911399, “Two distinct binding modes provide the RNA-binding protein RbFox with extraordinary sequence specificity”.
Residue numbers refer to the chain shown, from its start. The list shows a part of the results.

T1: RBFOX1 RRM (Homo sapiens, UniProt Q9NWB1 109-208)
T1 sequence: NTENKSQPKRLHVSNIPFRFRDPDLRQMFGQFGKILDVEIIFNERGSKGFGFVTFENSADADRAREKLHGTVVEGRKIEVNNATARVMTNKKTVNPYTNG

B1: UCUAGUG (DNA:RNA)
RNA: GGGAGACCGGAAUUCAGAUUGUCCUCUAGUGUUAAAUCCCGUCGUAGCCACCA
DNA 1: CAATCTGAATTCCGGTCTCCC
DNA 2: TGGTGGCTACGACGGGATT
B2: UCCGGGU (DNA:RNA)
RNA: B1 RNA with U27C, A28G, U30G, G31U
DNA 1: CAATCTGAATTCCGGTCTCCC
DNA 2: TGGTGGCTACGACGGGATT
B3: UCCAAUU (DNA:RNA)
RNA: B1 RNA with U27C, G29A, G31U
DNA 1: CAATCTGAATTCCGGTCTCCC
DNA 2: TGGTGGCTACGACGGGATT
B4: UCCCCUU (DNA:RNA)
RNA: B1 RNA with U27C, A28C, G29C, G31U
DNA 1: CAATCTGAATTCCGGTCTCCC
DNA 2: TGGTGGCTACGACGGGATT
B5: GCGCCGU (DNA:RNA)
RNA: B1 RNA with U25G, U27G, A28C, G29C, U30G, G31U
DNA 1: CAATCTGAATTCCGGTCTCCC
DNA 2: TGGTGGCTACGACGGGATT
B6: GCCAAUG (DNA:RNA)
RNA: B1 RNA with U25G, U27C, G29A
DNA 1: CAATCTGAATTCCGGTCTCCC
DNA 2: TGGTGGCTACGACGGGATT
B7: AGUUAGC (DNA:RNA)
RNA: B1 RNA with U25A, C26G, A28U, G29A, U30G, G31C
DNA 1: CAATCTGAATTCCGGTCTCCC
DNA 2: TGGTGGCTACGACGGGATT
B8: CGUGCUA (DNA:RNA)
RNA: B1 RNA with U25C, C26G, A28G, G29C, G31A
DNA 1: CAATCTGAATTCCGGTCTCCC
DNA 2: TGGTGGCTACGACGGGATT
B9: AUAGUUA (DNA:RNA)
RNA: B1 RNA with U25A, C26U, U27A, A28G, G29U, G31A
DNA 1: CAATCTGAATTCCGGTCTCCC
DNA 2: TGGTGGCTACGACGGGATT
B10: GCGGUUG (DNA:RNA)
RNA: B1 RNA with U25G, U27G, A28G, G29U
DNA 1: CAATCTGAATTCCGGTCTCCC
DNA 2: TGGTGGCTACGACGGGATT
B11: UCUGGAA (DNA:RNA)
RNA: B1 RNA with A28G, U30A, G31A
DNA 1: CAATCTGAATTCCGGTCTCCC
DNA 2: TGGTGGCTACGACGGGATT
B12: CCCCGUA (DNA:RNA)
RNA: B1 RNA with U25C, U27C, A28C, G31A
DNA 1: CAATCTGAATTCCGGTCTCCC
DNA 2: TGGTGGCTACGACGGGATT
B13: CAAGCGU (DNA:RNA)
RNA: GGGAGACCGGAAUUCAGAUUGUCCCAAGCGUUUAAAUCCCGUCGUAGCCACCA
DNA 1: CAATCTGAATTCCGGTCTCCC
DNA 2: TGGTGGCTACGACGGGATT
B14: UUAAUCA (DNA:RNA)
RNA: B1 RNA with C26U, U27A, G29U, U30C, G31A
DNA 1: CAATCTGAATTCCGGTCTCCC
DNA 2: TGGTGGCTACGACGGGATT
B15: CAUAGUG (DNA:RNA)
RNA: B1 RNA with U25C, C26A
DNA 1: CAATCTGAATTCCGGTCTCCC
DNA 2: TGGTGGCTACGACGGGATT
B16: UCAGUCA (DNA:RNA)
RNA: B13 RNA with C25U, A26C, C29U, G30C, U31A
DNA 1: CAATCTGAATTCCGGTCTCCC
DNA 2: TGGTGGCTACGACGGGATT
B17: CCCGGUG (DNA:RNA)
RNA: B1 RNA with U25C, U27C, A28G
DNA 1: CAATCTGAATTCCGGTCTCCC
DNA 2: TGGTGGCTACGACGGGATT
B18: CAACACA (DNA:RNA)
RNA: B13 RNA with G28C, C29A, G30C, U31A
DNA 1: CAATCTGAATTCCGGTCTCCC
DNA 2: TGGTGGCTACGACGGGATT
B19: UUUCCCA (DNA:RNA)
RNA: B1 RNA with C26U, A28C, G29C, U30C, G31A
DNA 1: CAATCTGAATTCCGGTCTCCC
DNA 2: TGGTGGCTACGACGGGATT
B20: GGCGUGA (DNA:RNA)
RNA: B13 RNA with C25G, A26G, A27C, C29U, U31A
DNA 1: CAATCTGAATTCCGGTCTCCC
DNA 2: TGGTGGCTACGACGGGATT
B21: GGUGCUU (DNA:RNA)
RNA: B13 RNA with C25G, A26G, A27U, G30U
DNA 1: CAATCTGAATTCCGGTCTCCC
DNA 2: TGGTGGCTACGACGGGATT
B22: UAGGAAU (DNA:RNA)
RNA: B13 RNA with C25U, A27G, C29A, G30A
DNA 1: CAATCTGAATTCCGGTCTCCC
DNA 2: TGGTGGCTACGACGGGATT
B23: GGUAUAU (DNA:RNA)
RNA: B1 RNA with U25G, C26G, G29U, U30A, G31U
DNA 1: CAATCTGAATTCCGGTCTCCC
DNA 2: TGGTGGCTACGACGGGATT
B24: AGCGCUU (DNA:RNA)
RNA: B13 RNA with C25A, A26G, A27C, G30U
DNA 1: CAATCTGAATTCCGGTCTCCC
DNA 2: TGGTGGCTACGACGGGATT
B25: AGGGCUG (DNA:RNA)
RNA: B13 RNA with C25A, A26G, A27G, G30U, U31G
DNA 1: CAATCTGAATTCCGGTCTCCC
DNA 2: TGGTGGCTACGACGGGATT
B26: GGUGGUA (DNA:RNA)
RNA: B1 RNA with U25G, C26G, A28G, G31A
DNA 1: CAATCTGAATTCCGGTCTCCC
DNA 2: TGGTGGCTACGACGGGATT
B27: GUCCGCC (DNA:RNA)
RNA: B1 RNA with U25G, C26U, U27C, A28C, U30C, G31C
DNA 1: CAATCTGAATTCCGGTCTCCC
DNA 2: TGGTGGCTACGACGGGATT
B28: ACUAAGC (DNA:RNA)
RNA: B1 RNA with U25A, G29A, U30G, G31C
DNA 1: CAATCTGAATTCCGGTCTCCC
DNA 2: TGGTGGCTACGACGGGATT
B29: CCGGUUC (DNA:RNA)
RNA: B13 RNA with A26C, A27G, C29U, G30U, U31C
DNA 1: CAATCTGAATTCCGGTCTCCC
DNA 2: TGGTGGCTACGACGGGATT
B30: GCGCGCC (DNA:RNA)
RNA: B1 RNA with U25G, U27G, A28C, U30C, G31C
DNA 1: CAATCTGAATTCCGGTCTCCC
DNA 2: TGGTGGCTACGACGGGATT
B31: CGGUAUU (DNA:RNA)
RNA: B13 RNA with A26G, A27G, G28U, C29A, G30U
DNA 1: CAATCTGAATTCCGGTCTCCC
DNA 2: TGGTGGCTACGACGGGATT

Biological target: T1, RBFOX1 RRM
Test: EMSA; HiTS-Eq, 1 nM pool, 10 min; buffer printed only for the single-RNA assays: 10 mM Tris pH 7.5, 150 mM NaCl, 3.4 mM EDTA, 0.001% NP-40, 30 C
Conditions: tags: His6 N-terminal (pET28a); label: 5' 32P
In short: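 Purified RbFox RRM, wild type or mutant, was incubated for 10 min in 50 µL with 1 nM of a 5′-radiolabelled RNA pool carrying 7 randomized nucleotides, whose flanks were annealed to DNA oligonucleotides, over a series of increasing protein concentrations. Unbound RNA was resolved on 8% native PAGE, cut out, reverse-transcribed, barcoded by PCR and sequenced on an Illumina HiSeq 2500. Relative association constants were derived from changes in read counts for each RNA species versus the control reaction and normalised to the cognate motif.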

Binder	binding signal
B1	0.0133 KA relative to UGCAUGU
B2	0.00411 KA relative to UGCAUGU
B3	0.0006 KA relative to UGCAUGU
B4	0.0019 KA relative to UGCAUGU
B5	0.0132 KA relative to UGCAUGU
B6	0.0122 KA relative to UGCAUGU
B7	0.0092 KA relative to UGCAUGU
B8	0.0127 KA relative to UGCAUGU
B9	0.00305 KA relative to UGCAUGU
B10	0.0329 KA relative to UGCAUGU
B11	0.00885 KA relative to UGCAUGU
B12	0.00304 KA relative to UGCAUGU
B13	0.00823 KA relative to UGCAUGU
B14	0.00562 KA relative to UGCAUGU
B15	0.00893 KA relative to UGCAUGU
B16	0.00473 KA relative to UGCAUGU

Binder	binding signal
B17	0.00625 KA relative to UGCAUGU
B18	0.0017 KA relative to UGCAUGU
B19	0.00486 KA relative to UGCAUGU
B20	0.01 KA relative to UGCAUGU
B21	0.0178 KA relative to UGCAUGU
B22	0.00781 KA relative to UGCAUGU
B23	0.0017 KA relative to UGCAUGU
B24	0.00875 KA relative to UGCAUGU
B25	0.0262 KA relative to UGCAUGU
B26	0.0276 KA relative to UGCAUGU
B27	0.0105 KA relative to UGCAUGU
B28	0.00409 KA relative to UGCAUGU
B29	0.00923 KA relative to UGCAUGU
B30	0.0164 KA relative to UGCAUGU
B31	0.00739 KA relative to UGCAUGU
